# Data: the supplement of paper PMC8728848
# The list shows a part of the results.
# B1: HHA (Hippeastrum hybrid) (protein)
# chain: MQQDCNLVLYDVDKPIWASNTGGLARDCHLNMQSDGNLVVYAPRNQVIWASNTQGENGNYVCILQKDRNVVIYGTARWATGTNIHGAGIVGVPGSAPQNTTAEMIKLVRKYLITK
# Legend:
# Test in all cases: glycan array binding signal (z-score within array); higher = stronger binding
# Conditions in all cases: glycan notation: IUPAC condensed, linker removed
# [1] = target: Neu5Ac(a2-3)Gal(b1-4)GlcNAc(b1-3)Gal(b1-3)GlcNAc
# Outline: (§1)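 The Consortium for Functional Glycomics database supplied 3228 glycan arrays, of which those lacking an available protein sequence were dropped. The binding signal, a within-array Z-score, was averaged across arrays of the same protein sequence and across linkers. Negative scores can be read as non-binding.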
# [2] = target: Neu5Ac(a2-3)Gal(b1-4)GlcNAc(b1-3)Gal(b1-4)GlcNAc
# Outline: as §1
# [3] = target: Neu5Ac(a2-3)Gal(b1-4)GlcNAc(b1-3)Gal(b1-4)GlcNAc(b1-2)Man(a1-3)[Neu5Ac(a2-3)Gal(b1-4)GlcNAc(b1-3)Gal(b1-4)GlcNAc(b1-2)Man(a1-6)]Man(b1-4)GlcNAc(b1-4)GlcNAc
# Outline: as §1
# [4] = target: Neu5Ac(a2-3)Gal(b1-4)GlcNAc(b1-3)Gal(b1-4)GlcNAc(b1-3)Gal(b1-4)GlcNAc
# Outline: as §1
# [5] = target: Neu5Ac(a2-3)Gal(b1-4)GlcNAc(b1-3)Gal(b1-4)GlcNAc(b1-3)Gal(b1-4)GlcNAc(b1-2)Man(a1-3)[Neu5Ac(a2-3)Gal(b1-4)GlcNAc(b1-3)Gal(b1-4)GlcNAc(b1-3)Gal(b1-4)GlcNAc(b1-2)Man(a1-6)]GalNAc
# Outline: as §1
# [6] = target: Neu5Ac(a2-3)Gal(b1-4)GlcNAc(b1-3)Gal(b1-4)GlcNAc(b1-3)GalNAc
# Outline: as §1
# [7] = target: Neu5Ac(a2-3)Gal(b1-4)GlcNAc(b1-3)Gal(b1-4)GlcNAc(b1-3)[Neu5Ac(a2-3)Gal(b1-4)GlcNAc(b1-3)Gal(b1-4)GlcNAc(b1-6)]GalNAc
# Outline: as §1
# [8] = target: Neu5Ac(a2-3)Gal(b1-4)GlcNAc(b1-3)Gal(b1-4)GlcNAc(b1-6)[Gal(b1-3)]GalNAc
# Outline: as §1
# [9] = target: Neu5Ac(a2-3)Gal(b1-4)GlcNAc(b1-3)Gal(b1-4)[Fuc(a1-3)]GlcNAc
# Outline: as §1
# [10] = target: Neu5Ac(a2-3)Gal(b1-4)GlcNAc(b1-3)GalNAc
# Outline: as §1
# [11] = target: Neu5Ac(a2-3)Gal(b1-4)GlcNAc(b1-3)[Neu5Ac(a2-3)Gal(b1-4)GlcNAc(b1-6)]GalNAc
# Outline: as §1
# [12] = target: Neu5Ac(a2-3)Gal(b1-4)GlcNAc(b1-6)GalNAc
# Outline: as §1
# [13] = target: Neu5Ac(a2-3)Gal(b1-4)GlcNAc(b1-6)[Gal(b1-3)]GalNAc
# Outline: as §1
# [14] = target: Neu5Ac(a2-3)Gal(b1-4)GlcNAc(b1-6)[Neu5Ac(a2-3)Gal(b1-3)]GalNAc
# Outline: as §1
# [15] = target: Neu5Ac(a2-3)Gal(b1-4)GlcNAc6S
# Outline: as §1
# [16] = target: Neu5Ac(a2-3)Gal(b1-4)[Fuc(a1-3)]GlcNAc
# Outline: as §1
# [17] = target: Neu5Ac(a2-3)Gal(b1-4)[Fuc(a1-3)]GlcNAc(b1-2)Man
# Outline: as §1
# [18] = target: Neu5Ac(a2-3)Gal(b1-4)[Fuc(a1-3)]GlcNAc(b1-3)Gal
# Outline: as §1
# [19] = target: Neu5Ac(a2-3)Gal(b1-4)[Fuc(a1-3)]GlcNAc(b1-3)Gal(b1-4)GlcNAc
# Outline: as §1
# [20] = target: Neu5Ac(a2-3)Gal(b1-4)[Fuc(a1-3)]GlcNAc(b1-3)Gal(b1-4)[Fuc(a1-3)]GlcNAc(b1-3)Gal(b1-4)[Fuc(a1-3)]GlcNAc
# Outline: as §1
# [21] = target: Neu5Ac(a2-3)Gal(b1-4)[Fuc(a1-3)]GlcNAc(b1-3)GalNAc
# Outline: as §1
# [22] = target: Neu5Ac(a2-3)Gal(b1-4)[Fuc(a1-3)]GlcNAc(b1-6)[Gal(b1-3)]GalNAc
# Outline: as §1
# [23] = target: Neu5Ac(a2-3)Gal(b1-4)[Fuc(a1-3)]GlcNAc(b1-6)[Neu5Ac(a2-3)Gal(b1-3)]GalNAc
# Outline: as §1
# [24] = target: Neu5Ac(a2-3)Gal(b1-4)[Fuc(a1-3)]GlcNAc6S
# Outline: as §1
# [25] = target: Neu5Ac(a2-3)Gal6S(b1-4)GlcNAc
# Outline: as §1
# [26] = target: Neu5Ac(a2-3)Gal6S(b1-4)[Fuc(a1-3)]GlcNAc
# Outline: as §1
# [27] = target: Neu5Ac(a2-3)GalNAc
# Outline: as §1
# [28] = target: Neu5Ac(a2-3)GalNAc(b1-4)GlcNAc
# Outline: as §1
# [29] = target: Neu5Ac(a2-3)[GalNAc(b1-4)]Gal(b1-4)Glc
# Outline: as §1
# [30] = target: Neu5Ac(a2-3)[GalNAc(b1-4)]Gal(b1-4)GlcNAc
# Outline: as §1
# [31] = target: Neu5Ac(a2-3)[GalNAc(b1-4)]Gal(b1-4)GlcNAc(b1-3)GalNAc
# Outline: as §1
# [32] = target: Neu5Ac(a2-3)[Neu5Ac(a2-6)]GalNAc
# Outline: as §1
# [33] = target: Neu5Ac(a2-6)Gal
# Outline: as §1
# [34] = target: Neu5Ac(a2-6)Gal(b1-3)GlcNAc(b1-3)[Gal(b1-4)GlcNAc(b1-6)]Gal(b1-4)Glc
# Outline: as §1
# [35] = target: Neu5Ac(a2-6)Gal(b1-4)Glc
# Outline: as §1
# [36] = target: Neu5Ac(a2-6)Gal(b1-4)GlcNAc
# Outline: as §1
# [37] = target: Neu5Ac(a2-6)Gal(b1-4)GlcNAc(b1-2)Man
# Outline: as §1
# [38] = target: Neu5Ac(a2-6)Gal(b1-4)GlcNAc(b1-2)Man(a1-3)Man(b1-4)GlcNAc(b1-4)GlcNAc
# Outline: as §1
# [39] = target: Neu5Ac(a2-6)Gal(b1-4)GlcNAc(b1-2)Man(a1-3)[Gal(b1-4)GlcNAc(b1-2)Man(a1-6)]Man(b1-4)GlcNAc(b1-4)GlcNAc
# Outline: as §1
# [40] = target: Neu5Ac(a2-6)Gal(b1-4)GlcNAc(b1-2)Man(a1-3)[GlcNAc(b1-2)Man(a1-6)]Man(b1-4)GlcNAc(b1-4)GlcNAc
# Outline: as §1
# [41] = target: Neu5Ac(a2-6)Gal(b1-4)GlcNAc(b1-2)Man(a1-3)[GlcNAc(b1-4)][Neu5Ac(a2-6)Gal(b1-4)GlcNAc(b1-2)Man(a1-6)]Man(b1-4)GlcNAc(b1-4)GlcNAc
# Outline: as §1
# [42] = target: Neu5Ac(a2-6)Gal(b1-4)GlcNAc(b1-2)Man(a1-3)[Man(a1-6)]Man(b1-4)GlcNAc(b1-4)GlcNAc
# Outline: as §1
# [43] = target: Neu5Ac(a2-6)Gal(b1-4)GlcNAc(b1-2)Man(a1-3)[Neu5Ac(a2-3)Gal(b1-4)GlcNAc(b1-2)Man(a1-6)]Man(b1-4)GlcNAc(b1-4)GlcNAc
# Outline: as §1
# [44] = target: Neu5Ac(a2-6)Gal(b1-4)GlcNAc(b1-2)Man(a1-3)[Neu5Ac(a2-6)Gal(b1-4)GlcNAc(b1-2)Man(a1-6)]Man(b1-4)GlcNAc(b1-4)GlcNAc
# Outline: as §1
# [45] = target: Neu5Ac(a2-6)Gal(b1-4)GlcNAc(b1-2)Man(a1-3)[Neu5Ac(a2-6)Gal(b1-4)GlcNAc(b1-2)Man(a1-6)]Man(b1-4)GlcNAc(b1-4)[Fuc(a1-6)]GlcNAc
# Outline: as §1
binder,measurement,setting,value
B1,glycan array binding signal (z-score),[1],-0.215
same,glycan array binding signal (z-score),[2],-0.21
same,glycan array binding signal (z-score),[3],-0.067
same,glycan array binding signal (z-score),[4],-0.185
same,glycan array binding signal (z-score),[5],-0.001
same,glycan array binding signal (z-score),[6],-0.188
same,glycan array binding signal (z-score),[7],-0.187
same,glycan array binding signal (z-score),[8],-0.16
same,glycan array binding signal (z-score),[9],-0.207
same,glycan array binding signal (z-score),[10],-0.156
same,glycan array binding signal (z-score),[11],-0.205
same,glycan array binding signal (z-score),[12],-0.212
same,glycan array binding signal (z-score),[13],-0.208
same,glycan array binding signal (z-score),[14],-0.215
same,glycan array binding signal (z-score),[15],-0.158
same,glycan array binding signal (z-score),[16],-0.215
same,glycan array binding signal (z-score),[17],-0.201
same,glycan array binding signal (z-score),[18],-0.222
same,glycan array binding signal (z-score),[19],-0.211
same,glycan array binding signal (z-score),[20],-0.174
same,glycan array binding signal (z-score),[21],-0.189
same,glycan array binding signal (z-score),[22],-0.179
same,glycan array binding signal (z-score),[23],-0.168
same,glycan array binding signal (z-score),[24],-0.221
same,glycan array binding signal (z-score),[25],-0.219
same,glycan array binding signal (z-score),[26],-0.214
same,glycan array binding signal (z-score),[27],-0.117
same,glycan array binding signal (z-score),[28],-0.186
same,glycan array binding signal (z-score),[29],-0.22
same,glycan array binding signal (z-score),[30],-0.192
same,glycan array binding signal (z-score),[31],-0.013
same,glycan array binding signal (z-score),[32],-0.215
same,glycan array binding signal (z-score),[33],-0.213
same,glycan array binding signal (z-score),[34],-0.203
same,glycan array binding signal (z-score),[35],-0.211
same,glycan array binding signal (z-score),[36],-0.211
same,glycan array binding signal (z-score),[37],-0.212
same,glycan array binding signal (z-score),[38],-0.202
same,glycan array binding signal (z-score),[39],-0.207
same,glycan array binding signal (z-score),[40],-0.219
same,glycan array binding signal (z-score),[41],-0.221
same,glycan array binding signal (z-score),[42],0.002
same,glycan array binding signal (z-score),[43],-0.213
same,glycan array binding signal (z-score),[44],-0.22
same,glycan array binding signal (z-score),[45],-0.202
